According to paper PMC7595586:
Numbering of substitutions follows the chain as printed. Names and notes keep the numbering of the source. Results are given in words; binding and its absence hold for the method and conditions named. For part of these data: Binding seen in cells or lysates may run through a third protein. Some binding calls cover weakened binding; strength is not graded here. Sequences can lack the tags named with a protein. Each block holds one binder with its values, some of them ahead of it.

Assays:
[1] = target: T1, GST-Atg38[161–190] (S. pombe) (UniProt O94427); test: pull-down; supernatants of E. coli lysates with GST or GST-fused Atg38 constructs mixed with lysates with HA-fused Atg8 constructs, 4°C, bound to glutathione Sepharose; 1× PBS pH 7.5, 200 mM NaCl, 10% glycerol, 0.05% NP-40; blot with antibody against HA
T1 sequence: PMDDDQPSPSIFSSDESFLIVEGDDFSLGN

[2] = target: T2, GST-Atg38[161–190]^F178A,V181A (S. pombe) (UniProt O94427); test: as above
T2 sequence: T1 sequence with F18A, V21A

[3] = target: T3, GST-Atg38[161–190] (S. pombe), O94427; test: as above; conditions: remark: other sources report otherwise
T3 chain: T1 sequence

[4] = target: T4, mCherry-tagged wild-type Atg38 (S. pombe) (UniProt O94427); test: co-IP; S. pombe lysates (50 mM HEPES pH 7.5, 150 mM NaCl, 1 mM EDTA, 1 mM DTT, 0.05% NP-40, 10% glycerol); mCherry-tagged Atg38 precipitated with mCherry-Trap agarose beads; blots with antibody against mCherry or GFP
T4 sequence: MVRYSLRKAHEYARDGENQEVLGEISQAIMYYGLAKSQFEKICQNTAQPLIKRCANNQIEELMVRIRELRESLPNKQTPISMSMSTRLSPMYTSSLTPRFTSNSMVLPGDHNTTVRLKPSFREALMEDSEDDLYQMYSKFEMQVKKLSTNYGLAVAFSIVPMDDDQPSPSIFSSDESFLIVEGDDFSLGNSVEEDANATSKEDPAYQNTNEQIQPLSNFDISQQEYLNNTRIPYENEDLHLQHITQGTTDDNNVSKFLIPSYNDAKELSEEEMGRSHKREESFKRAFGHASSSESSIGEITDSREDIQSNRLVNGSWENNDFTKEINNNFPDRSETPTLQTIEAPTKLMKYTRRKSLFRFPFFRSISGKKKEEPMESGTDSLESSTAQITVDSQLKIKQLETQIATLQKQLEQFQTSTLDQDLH

[5] = target: T5, Atg38 [73-212], yeast two-hybrid fusion (S. pombe) (UniProt O94427); test: two-hybrid; … Two-Hybrid System 3, modified pGBKT7 bait and pGADT7 prey, strain AH109; HIS3 and ADE2 reporters on triple and quadruple dropout media
T5 sequence: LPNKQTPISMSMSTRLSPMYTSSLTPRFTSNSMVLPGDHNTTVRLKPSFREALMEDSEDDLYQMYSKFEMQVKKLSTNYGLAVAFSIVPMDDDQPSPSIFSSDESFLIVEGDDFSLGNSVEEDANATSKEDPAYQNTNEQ

[6] = target: T6, Atg38, yeast two-hybrid fusion (S. pombe) (UniProt O94427); test: as above
T6 sequence: T4 sequence

binding [1]: binds
binding [2]: no binding
B1: HA-Atg8 (protein, UniProt O94272 1-116)
chain: MRSQFKDDFSFEKRKTESQRIREKYPDRIPVICEKVDKSDIAAIDKKKYLVPSDLTVGQFVYVIRKRIKLSPEKAIFIFIDEILPPTAALMSTIYEEHKSEDGFLYITYSGENTFG

binding [3]: no binding
B2: HA-Atg8^P52A,R67A, O94272 1-116 (protein)
chain: B1 chain with P52A, R67A

binding [4]: binds
B3: GFP-tagged Atg8 (protein, UniProt O94272 1-116)
chain: B1 chain

binding [5]: binds
binding [6]: binds
B4: Atg8, yeast two-hybrid fusion (protein, UniProt O94272 1-121)
chain: MRSQFKDDFSFEKRKTESQRIREKYPDRIPVICEKVDKSDIAAIDKKKYLVPSDLTVGQFVYVIRKRIKLSPEKAIFIFIDEILPPTAALMSTIYEEHKSEDGFLYITYSGENTFGTVFPF
